T1: Human 5T4 (produced in-house) (human, UniProt Q13641 32-355, limits assumed)
T1 sequence (looked up): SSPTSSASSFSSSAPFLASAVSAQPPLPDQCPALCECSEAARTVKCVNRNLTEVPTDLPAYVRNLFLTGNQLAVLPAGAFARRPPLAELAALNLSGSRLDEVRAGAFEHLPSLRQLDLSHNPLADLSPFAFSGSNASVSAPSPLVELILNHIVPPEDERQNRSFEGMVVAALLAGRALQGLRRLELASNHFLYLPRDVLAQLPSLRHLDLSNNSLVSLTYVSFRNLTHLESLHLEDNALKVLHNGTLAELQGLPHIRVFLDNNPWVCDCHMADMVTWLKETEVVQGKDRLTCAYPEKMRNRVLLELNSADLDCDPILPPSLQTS


Tests used:
[1] = biological target: T1, Human 5T4 (produced in-house); test: BLI Octet, bsAb on anti-Fab-CH1 tips, 5T4 as analyte
[2] = biological target: T2, recombinant human CD137-Fc (R&D #838-4B) (human, UniProt Q07011 24-186); test: BLI Octet, bsAb on anti-Fab-CH1 tips, CD137-Fc as analyte
T2 construct: bought; also called CD137 (R&D #838-4B); not shown: Fc part, bought reagent, not described
T2 sequence (Q07011 24-186 limits assumed): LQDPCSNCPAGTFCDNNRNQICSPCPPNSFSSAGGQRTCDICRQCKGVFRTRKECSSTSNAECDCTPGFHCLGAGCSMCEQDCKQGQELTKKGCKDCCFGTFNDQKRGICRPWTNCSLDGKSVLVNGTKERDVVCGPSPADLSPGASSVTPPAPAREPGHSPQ

Kd [1] [nM]	koff [1] [s⁻¹]	kon [1] [M⁻¹ s⁻¹]	Kd [2] [nM]	koff [2] [s⁻¹]	kon [2] [M⁻¹ s⁻¹]	Binder
0.469	0.000106	227000				1618-1210LO6 (bispecific antibody, human IgG1, kappa) heavy: EVQLLESGGGLVQPGGSLRLSCAASGFTFSYGSMYWVRQAPGKGLEWVSSISSGSGSTYYADSVKGRFTISRDNSKNTLYLQMNSLRAEDTAVYYCARSSYYGSYYSIDYWGQGTLVTVSS[no letters for human IgG1 constant region with changes]GGGGSGGGGSEVQLLESGGGLVQPGGSLRLSCAASGFTFDSYAMSWVRQAPGKGLEWVSAISGSGGSTYYADSVKGRFTISRDNSKNTLYLQMNSLRAEDTAVYYCARYYGGYYSAWMDYWGQGTLVTVSSGGGGSGGGGSGGGGSDIQMTQSPSSLSASVGDRVTITCRASQSIRSALNWYQQKPGKAPKLLIYAASSLHSGVPSRFSGSGSGTDFTLTISSLQPEDFATYYCQQTYGYLHTFGQGTKLEIK light: DIQMTQSPSSLSASVGDRVTITCRASQSISSYLNWYQQKPGKAPKLLIYAASSLQSGVPSRFSGSGSGTDFTLTISSLQPEDFATYYCQQYYDNLPTFGQGTKLEIKRTVAAPSVFIFPPSDEQLKSGTASVVCLLNNFYPREAKVQWKVDNALQSGNSQESVTEQDSKDSTYSLSSTLTLSKADYEKHKVYACEVTHQGLSSPVTKSFNRGEC
0.495	8.29e-05	168000				1618-1210LO7 (bispecific antibody, human IgG1, kappa) heavy: EVQLLESGGGLVQPGGSLRLSCAASGFTFSYGSMYWVRQAPGKGLEWVSSISSGSGSTYYADSVKGRFTISRDNSKNTLYLQMNSLRAEDTAVYYCARSSYYGSYYSIDYWGQGTLVTVSS[no letters for human IgG1 constant region with changes]GGGGSGGGGSEVQLLESGGGLVQPGGSLRLSCAASGFDFDSYAMSWVRQAPGKGLEWVSAISGSGGSTYYADSVKGRFTISRDNSKNTLYLQMNSLRAEDTAVYYCARYYGGYYSAWMDYWGQGTLVTVSSGGGGSGGGGSGGGGSDIQMTQSPSSLSASVGDRVTITCRASQSISSALNWYQQKPGKAPKLLIYAASSLHSGVPSRFSGSGSGTDFTLTISSLQPEDFATYYCQQTYGYLHTFGQGTKLEIK light: DIQMTQSPSSLSASVGDRVTITCRASQSISSYLNWYQQKPGKAPKLLIYAASSLQSGVPSRFSGSGSGTDFTLTISSLQPEDFATYYCQQYYDNLPTFGQGTKLEIKRTVAAPSVFIFPPSDEQLKSGTASVVCLLNNFYPREAKVQWKVDNALQSGNSQESVTEQDSKDSTYSLSSTLTLSKADYEKHKVYACEVTHQGLSSPVTKSFNRGEC
0.498	8.83e-05	177000				1618-1210LO8 (bispecific antibody, human IgG1, kappa) heavy: EVQLLESGGGLVQPGGSLRLSCAASGFTFSYGSMYWVRQAPGKGLEWVSSISSGSGSTYYADSVKGRFTISRDNSKNTLYLQMNSLRAEDTAVYYCARSSYYGSYYSIDYWGQGTLVTVSS[no letters for human IgG1 constant region with changes]GGGGSGGGGSEVQLLESGGGLVQPGGSLRLSCAASGFDFESYAMSWVRQAPGKGLEWVSAISGSGGSTYYADSVKGRFTISRDNSKNTLYLQMNSLRAEDTAVYYCARYYGGYYSAWMDYWGQGTLVTVSSGGGGSGGGGSGGGGSDIQMTQSPSSLSASVGDRVTITCRASQSIHQALNWYQQKPGKAPKLLIYGASSLQSGVPSRFSGSGSGTDFTLTISSLQPEDFATYYCQQTYGYLHTFGQGTKLEIK light: DIQMTQSPSSLSASVGDRVTITCRASQSISSYLNWYQQKPGKAPKLLIYAASSLQSGVPSRFSGSGSGTDFTLTISSLQPEDFATYYCQQYYDNLPTFGQGTKLEIKRTVAAPSVFIFPPSDEQLKSGTASVVCLLNNFYPREAKVQWKVDNALQSGNSQESVTEQDSKDSTYSLSSTLTLSKADYEKHKVYACEVTHQGLSSPVTKSFNRGEC
0.534	0.000125	235000				1618-1210LO9 (bispecific antibody, human IgG1, kappa) heavy: EVQLLESGGGLVQPGGSLRLSCAASGFTFSYGSMYWVRQAPGKGLEWVSSISSGSGSTYYADSVKGRFTISRDNSKNTLYLQMNSLRAEDTAVYYCARSSYYGSYYSIDYWGQGTLVTVSS[no letters for human IgG1 constant region with changes]GGGGSGGGGSEVQLLESGGGLVQPGGSLRLSCAASGFDFDSYAMSWVRQAPGKGLEWVSAISGSGGSTYYADSVKGRFTISRDNSKNTLYLQMNSLRAEDTAVYYCARYYGGYYSAWMDYWGQGTLVTVSSGGGGSGGGGSGGGGSDIQMTQSPSSLSASVGDRVTITCRASQSIHQALNWYQQKPGKAPKLLIYAASSLHSGVPSRFSGSGSGTDFTLTISSLQPEDFATYYCQQTYGYLHTFGQGTKLEIK light: DIQMTQSPSSLSASVGDRVTITCRASQSISSYLNWYQQKPGKAPKLLIYAASSLQSGVPSRFSGSGSGTDFTLTISSLQPEDFATYYCQQYYDNLPTFGQGTKLEIKRTVAAPSVFIFPPSDEQLKSGTASVVCLLNNFYPREAKVQWKVDNALQSGNSQESVTEQDSKDSTYSLSSTLTLSKADYEKHKVYACEVTHQGLSSPVTKSFNRGEC
			3.38	0.000948	280000	1210-1618LO10 (bispecific antibody, human IgG1, kappa) heavy: [no letters for about 100 residues]YYGGYYSAWMDYWGQGTLVTVSS[no letters for human IgG1 constant region with changes]GGGGSGGGGSEVQLLESGGGLVQPGGSLRLSCAASGFTFDYGSMYWVRQAPGKGLEWVSSISSGSGSTHYADSVKGRFTISRDNSKNTLYLQMNSLRAEDTAVYYCARSSYYGSYYSIDYWGQGTLVTVSSGGGGSGGGGSGGGGSDIQMTQSPSSLSASVGDRVTITCRASQSISSYLNWYQQKPGKAPKLLIYGAESLQSGVPSRFSGSGSGTDFTLTISSLQPEDFATYYCQQYYDNLPTFGQGTKLEIK light: DIQMTQSPSSLSASVGDRVTITCRASQSISSYLNWYQQKPGKAPKLLIYAASSLQSGVPSRFSGSGSGTDFTLTISSLQPEDFATYYCQQTYGYLHTFGQGTKLEIKRTVAAPSVFIFPPSDEQLKSGTASVVCLLNNFYPREAKVQWKVDNALQSGNSQESVTEQDSKDSTYSLSSTLTLSKADYEKHKVYACEVTHQGLSSPVTKSFNRGEC
			3.66	0.00106	289000	1210-1618LO11 (bispecific antibody, human IgG1, kappa) heavy: [no letters for about 100 residues]YYGGYYSAWMDYWGQGTLVTVSS[no letters for human IgG1 constant region with changes]GGGGSGGGGSEVQLLESGGGLVQPGGSLRLSCAASGFTFDYGSMYWVRQAPGKGLEWVSSISSGSGSTYYADSVKGRFTISRDNSKNTLYLQMNSLRAEDTAVYYCARSSYYGSYYSIDYWGQGTLVTVSSGGGGSGGGGSGGGGSDIQMTQSPSSLSASVGDRVTITCRASQSISSYLNWYQQKPGKAPKLLIYAASSLHSGVPSRFSGSGSGTDFTLTISSLQPEDFATYYCQQYYDNLPTFGQGTKLEIK light: DIQMTQSPSSLSASVGDRVTITCRASQSISSYLNWYQQKPGKAPKLLIYAASSLQSGVPSRFSGSGSGTDFTLTISSLQPEDFATYYCQQTYGYLHTFGQGTKLEIKRTVAAPSVFIFPPSDEQLKSGTASVVCLLNNFYPREAKVQWKVDNALQSGNSQESVTEQDSKDSTYSLSSTLTLSKADYEKHKVYACEVTHQGLSSPVTKSFNRGEC
			2.38	0.000911	383000	1210-1618LO12 (bispecific antibody, human IgG1, kappa) heavy: [no letters for about 100 residues]YYGGYYSAWMDYWGQGTLVTVSS[no letters for human IgG1 constant region with changes]GGGGSGGGGSEVQLLESGGGLVQPGGSLRLSCAASGFTFSYGSMYWVRQAPGKGLEWVSSISSGSGSTHYADSVKGRFTISRDNSKNTLYLQMNSLRAEDTAVYYCARSSYYGSYYSIDYWGQGTLVTVSSGGGGSGGGGSGGGGSDIQMTQSPSSLSASVGDRVTITCRASQSISSYLNWYQQKPGKAPKLLIYGASSLHSGVPSRFSGSGSGTDFTLTISSLQPEDFATYYCQQYYDNLPTFGQGTKLEIK light: DIQMTQSPSSLSASVGDRVTITCRASQSISSYLNWYQQKPGKAPKLLIYAASSLQSGVPSRFSGSGSGTDFTLTISSLQPEDFATYYCQQTYGYLHTFGQGTKLEIKRTVAAPSVFIFPPSDEQLKSGTASVVCLLNNFYPREAKVQWKVDNALQSGNSQESVTEQDSKDSTYSLSSTLTLSKADYEKHKVYACEVTHQGLSSPVTKSFNRGEC
			2.82	0.000995		1210-1618LO13 (bispecific antibody, human IgG1, kappa) heavy: [no letters for about 100 residues]YYGGYYSAWMDYWGQGTLVTVSS[no letters for human IgG1 constant region with changes]GGGGSGGGGSEVQLLESGGGLVQPGGSLRLSCAASGFTFDYGSMYWVRQAPGKGLEWVSSISSGSGSTYYADSVKGRFTISRDNSKNTLYLQMNSLRAEDTAVYYCARSSYYGSYYSIDYWGQGTLVTVSSGGGGSGGGGSGGGGSDIQMTQSPSSLSASVGDRVTITCRASQSIRSYLNWYQQKPGKAPKLLIYGASSLHSGVPSRFSGSGSGTDFTLTISSLQPEDFATYYCQQYYDNLPTFGQGTKLEIK light: DIQMTQSPSSLSASVGDRVTITCRASQSISSYLNWYQQKPGKAPKLLIYAASSLQSGVPSRFSGSGSGTDFTLTISSLQPEDFATYYCQQTYGYLHTFGQGTKLEIKRTVAAPSVFIFPPSDEQLKSGTASVVCLLNNFYPREAKVQWKVDNALQSGNSQESVTEQDSKDSTYSLSSTLTLSKADYEKHKVYACEVTHQGLSSPVTKSFNRGEC

From US20190169308A1 (ALLIGATOR BIOSCIENCE, published 2019)
